Among all 150,000 compounds or so, about 540 (0.36%) showed an effect of 50% or more. This is one part of the list.
test system: Plasmodium falciparum; assay: Primary screen in NF54 nanoGlo assay, in single point, at 2uM, 72h; a lower Z score goes with more inhibition; format: functional, Erythrocyte; details: timepoint 72 hour

| SMILES | % Inhibition | Z score |
| --- | --- | --- |
| O=C(Cn1cccn1)N1CCC[C@@H]1CF | -7% | 0.86 |
| CCN1C(=O)CO[C@H](C(=O)Nc2ccnc(C(C)(C)C)n2)[C@H]1c1cnn(C)c1 | -1% | 0.06 |
| CC(CS(=O)O)C(=O)NC1CCCCC1 (centres undefined) | -2% | 0.38 |
| COC1CS(=O)(=O)CC1NC(=O)Nc1c(C)cc(Cl)c2ccccc12 (centres undefined) | 5% | -0.65 |
| OC[C@H]1CCCN1c1ncnc2sc(-c3ccccc3)cc12 | -54% | 6.33 |
| O=C(Nc1ccc(F)cc1F)[C@H]1CCCN(S(=O)(=O)c2c[nH]c(C(=O)N3CCCCCC3)c2)C1 | -3% | 0.28 |
| C#CCNC(=O)CNC(=O)C#Cc1ccc(C(F)(F)F)cc1 | 27% | -3.72 |
| CC(C)(C)n1cc(CN[C@H]2CCc3nnc(Cc4ccccc4)n3C2)cn1 | 0% | 0.02 |
| CN(C[C@H]1CCOC1)C(=O)C1CCCCC1 | -3% | 0.41 |
| O=C(NC1CCCCCC1)c1nn(Cc2ccccc2)c(=O)c2ccccc12 | -8% | 1.27 |
| Cc1nc(CN2CCc3ccccc3C2)no1 | -12% | 2.34 |
| O=C(c1ccccc1)N1CCN(C[C@H](O)CN2CCOCC2)CC1 | -4% | 0.54 |
| CC(C)(CNC1CCCCC1S(C)(=O)=O)CC1CCOCC1 (centres undefined) | -4% | 0.42 |
| O=C1c2ccccc2C(=O)N1CCCCNc1ccc2nnnn2n1 | -9% | 1.47 |
| CC(C)Oc1cccc(CN2CCn3nc(CNc4ncccn4)cc3C2)c1 | -10% | 2.07 |
| Cc1ncn(Cc2nc(Cc3ccccc3)no2)c1C | -9% | 0.89 |
| Cc1cnc(CCNC(=O)Nc2ccnn2C2CCCCC2)s1 | -7% | 1.15 |
| CC(C)(C)CN(CCC#N)Cc1cccc(O)c1 | -8% | 1.52 |
| O=C(NCc1nnc2n1CCC2)C1CC2CCC1C2 (centres undefined) | -1% | 0.18 |
| CCC(NS(=O)(=O)c1ccco1)C(O)C(F)(F)F (centres undefined) | 3% | -0.59 |
| O=C(Nc1ccccc1OCc1ccccc1)c1ccco1 | -8% | 0.73 |
| Cc1nnc(CNC(=O)c2cccc(CN3CCCCCC3)c2)o1 | -6% | 1.08 |

| SMILES | % Inhibition | Z score |
| --- | --- | --- |
| O=C(c1ccc2noc(-c3ccc(F)cc3)c2c1)N1CCN(c2cccc(Cl)c2)CC1 | 2% | -0.21 |
| O=S(=O)(Cc1cnn(-c2ccccc2)c1)c1cccs1 | 0% | -0.02 |
| C[C@H](NC(=O)c1ccn2ccnc2c1)c1ccc(OC(F)(F)F)cc1 | -12% | 1.48 |
| CN1CCN(Cc2n[nH]c(=O)n2Cc2ccc(Cl)cc2)CC1 | -14% | 2.61 |
| O=C(Nc1onc2c1CCC2)[C@@H]1COc2ccccc2O1 | 12% | -1.65 |
| O=C(c1cc(-n2ccnc2)ccn1)N1CCC(Cc2ccccc2)CC1 | -10% | 1.77 |
| C[C@H](O)CN1CCN(C(=O)c2ccccc2-c2ccccc2)CC1 | -4% | 0.78 |
| CC1=NN(c2ccc(C)cc2C)C(=O)C1C(c1cccc(O)c1)C1C(=O)N(c2ccc(C)cc2C)N=C1C (centres undefined) | -26% | 3.01 |
| CC(C)(C(=O)N1CCC[C@H](S(C)(=O)=O)CC1)N1CCOCC1 | -9% | 1.31 |
| CCc1nccn1CCc1nc(C)nn1C(C)(C)C | 2% | -0.36 |
| O=C(Nc1cc[nH]n1)[C@H]1CCCN(S(=O)(=O)Cc2ccccc2)C1 | -11% | 1.53 |
| Cc1csc(C(NC(C)CC(=O)N2CCCCCC2)C2CC2)n1 (centres undefined) | -6% | 0.89 |
| Cc1ccc(-n2nc(C)c3c(C)cc(OCc4ccc5nonc5c4)nc32)cc1 | 13% | -1.28 |
| O=C(CN1C(=O)c2ccccc2C1=O)N1CCN(c2cc3c(nn2)CCC3)CC1 | -9% | 1.66 |
| CN(C)c1ccc(C(=O)N2CCC[C@]3(C4=CCOCC4)COCC[C@@H]23)cc1 | -17% | 2.19 |
| O=C(c1ccn2c(-c3cccc(Cl)c3)nnc2c1)N1CCN(c2ccccn2)CC1 | 4% | -0.49 |
| c1ccc(-n2nc(C3CCOCC3)nc2[C@H]2CCCN2)cc1 | 6% | -1.09 |
| CNS(=O)(=O)c1cc(C(=O)N2CCCN(CC(=O)N(C)C)CC2)cc(C)c1C | -6% | 0.82 |
| Cc1cccc(-c2cc(N3CCC(C(=O)Nc4cccc5ccccc45)CC3)ncn2)c1 | -9% | 1.7 |
| CC(NC(=O)CCC(O)c1ccc(C(C)(C)C)cc1)c1ncon1 (centres undefined) | 3% | -0.39 |
| COc1ccccc1-c1noc(Cc2nc(-c3cccc(Cl)c3)cs2)n1 | -6% | 0.72 |
| COC(=O)c1cccc(-c2noc(-c3cnc4c(c3)ncn4C)n2)c1 | -6% | 0.86 |

| SMILES | % Inhibition | Z score |
| --- | --- | --- |
| COCCCn1ccc(NC(=O)N[C@@H](C)c2cc3ccccc3o2)n1 | -9% | 1.76 |
| COc1ccccc1OCc1nc(C2(CO)CC2)n(-c2ccncc2)n1 | -8% | 1.52 |
| Cc1ccc(-c2c(CN3CCN(c4ccccc4F)CC3)csc2C)cc1 | -9% | 1.41 |
| CS(=O)(=O)N[C@@H](Cc1ccccc1)c1cccs1 | 31% | -0.58 |
| CN(CC1CCOCC1)C(=O)c1cc(C(F)F)n[nH]1 | -12% | 2.21 |
| O=C(Nc1ccc2nncn2c1)c1ccnn1C1CCCC1 | -4% | 0.58 |
| CCOC1CC(N(C)c2cc(C)nc3ncnn23)C1(CC)CC (centres undefined) | 2% | -0.38 |
| Cc1cc(C(=O)N2CCC[C@H](n3cccn3)C2)c(C)s1 | 4% | -0.74 |
| Cc1ccc(F)cc1CNC(=O)c1ccccc1N1CCC(=O)NC1=O | 22% | -2.83 |
| COC(=O)CC1(NCc2cc(F)c(F)c(F)c2)CCCCC1 | -4% | 0.54 |
| CCCCN(c1ccccc1C(=O)O)S(=O)(=O)c1ccc(OC)c2ccccc12 | -6% | 0.78 |
| COc1cc2c(cc1CN1CCC[C@H](N(C)C)CC1)OCO2 | -10% | 1.99 |
| COCc1noc(Cn2ncc3ccccc32)n1 | -5% | 0.77 |
| O=C1NC2(CCCCCC2)N=C1c1ccc(Cl)c(Cl)c1 | 1% | -0.14 |
| Oc1ccc2ccccc2c1[C@@H]1CCCCN1 | -6% | 0.85 |
| COc1ccc(CNC[C@H]2CCCN(C)C2)cc1OCc1cccnc1 | -17% | 2.04 |
| CN1CC[C@@]2(CCC1=O)CN(C(=O)c1ccc3c(c1)OCO3)CCN2C | -7% | 1.25 |
| Cc1c(NC(=O)CC[C@@H]2N=C(O)c3ccccc3NC2=O)cnn1C | -12% | 1.55 |
| CCn1nnc(C)c1CN1CCC(n2c(=O)[nH]c3cccnc32)CC1 | -7% | 1.04 |
| O=C(NCCNC(=O)c1ccccc1O)Nc1ccccc1N1CCCC1 | -14% | 1.45 |
| CCOCCCN=C(NCCOC)NCc1ccccc1 | -10% | 0.9 |
| C[C@@H](CN(C)Cc1ccc(C(=O)O)c(Cl)c1)c1nccs1 | 0% | -0.09 |

| SMILES | % Inhibition | Z score |
| --- | --- | --- |
| COC(=O)[C@H](Cc1ccncc1)NC(=O)c1cc(C)sn1 | -12% | 1.65 |
| O=C(Nc1nncc(-c2ccccc2)n1)N[C@H]1CCCCC12OCCO2 | 28% | -3.22 |
| Cc1ccc(Br)cc1CC#N | -2% | 0.32 |
| Cn1ccc(NC(=O)C(=O)c2ccc(-c3ccccc3)cc2)n1 | 34% | -1.19 |
| COc1ccccc1C(=O)Nc1ccc(OC(=O)Cc2c(C)noc2C)cc1 | -5% | 0.61 |
| COc1ccc2c(O)nn(C(=O)CCc3cnn(C)c3)c2c1 | -8% | 0.9 |
| CC(=O)NC[C@H]1CCN(S(=O)(=O)c2ccc(C#N)cc2)C[C@H]1N(C)C | -5% | 0.66 |
| O=C(c1ccc(Cl)s1)N1CCCN(C[C@H]2CCCO2)CC1 | -1% | 0.08 |
| CCn1cc(CNc2ccc(NC(=O)OC(C)(C)C)cc2C)cn1 | -20% | 1.92 |
| Cc1cc2nc(C(=O)N3CCCN(c4ccccc4C)CC3)cc(C)n2n1 | -3% | 0.39 |
| CCCCn1nc(CCOC)nc1-c1cc(C)nc(C)n1 | -1% | 0.18 |
| CC1CCc2ccccc2C1Nc1ccc2nccnc2n1 (centres undefined) | 18% | -2.07 |
| CCOc1ccc(CC(=O)N2CCN(c3ccc(=O)n(-c4ccc(Cl)cc4)n3)CC2)cc1OCC | 14% | -1.66 |
| CC1CN(c2ccc3nnnn3n2)CCN1CC(O)c1ccccc1 (centres undefined) | 3% | -0.51 |
| O=C(Nc1cccc(-c2ccc(=O)[nH]n2)c1)c1cc2cc(F)ccc2o1 | -10% | 1.26 |
| C[C@@H](Cn1cncn1)n1cnc2cccc(C(F)(F)F)c2c1=O | -8% | 1.41 |
| Fc1ccc(C2=C[C@@H](c3ccc(Cl)cc3)N3N=C(c4ccc(Cl)cc4)NC3=N2)cc1 | 96% | -14.66 |
| CCC[C@H]1CN(c2nnnn2-c2ccccc2)C[C@@H]1NS(C)(=O)=O | 1% | -0.18 |
| COCCN(CCOC)C(=O)c1cnn(C)c1 | -6% | 0.88 |
| O=C(NC12CCCC1C1CCC2C1)NC12CCCC1C1CCC2C1 (centres undefined) | -3% | 0.54 |
| O=C(NCCC1CC1)NC1CCOC1c1ccc(F)c(F)c1 (centres undefined) | -1% | 0.14 |

Reference: ChEMBL document CHEMBL4888484, “Replenishing the malaria drug discovery pipeline: Screening and hit evaluation of the MMV Hit Generation Library 1 (HGL1) against asexual blood stage Plasmodium falciparum ,using a nano luciferase reporter read-out” (2022)
